Results: article PMC6919601, “Identification of Plasmodium dipeptidyl aminopeptidase allosteric inhibitors by high throughput screening” (PLoS ONE, 2019)
Several values for one entry are separate records, joined by “and”; a condition that tells them apart may be missing. Equal values may be shown once. In all, about 110,000 compounds went through this assay and about 230 (0.21%) showed an effect of 50% or more. The list shows a part of the results.

Target: DPAP1 (Plasmodium falciparum, UniProt Q8IIJ9)
Sequence (Q8IIJ9 whole entry, looked up): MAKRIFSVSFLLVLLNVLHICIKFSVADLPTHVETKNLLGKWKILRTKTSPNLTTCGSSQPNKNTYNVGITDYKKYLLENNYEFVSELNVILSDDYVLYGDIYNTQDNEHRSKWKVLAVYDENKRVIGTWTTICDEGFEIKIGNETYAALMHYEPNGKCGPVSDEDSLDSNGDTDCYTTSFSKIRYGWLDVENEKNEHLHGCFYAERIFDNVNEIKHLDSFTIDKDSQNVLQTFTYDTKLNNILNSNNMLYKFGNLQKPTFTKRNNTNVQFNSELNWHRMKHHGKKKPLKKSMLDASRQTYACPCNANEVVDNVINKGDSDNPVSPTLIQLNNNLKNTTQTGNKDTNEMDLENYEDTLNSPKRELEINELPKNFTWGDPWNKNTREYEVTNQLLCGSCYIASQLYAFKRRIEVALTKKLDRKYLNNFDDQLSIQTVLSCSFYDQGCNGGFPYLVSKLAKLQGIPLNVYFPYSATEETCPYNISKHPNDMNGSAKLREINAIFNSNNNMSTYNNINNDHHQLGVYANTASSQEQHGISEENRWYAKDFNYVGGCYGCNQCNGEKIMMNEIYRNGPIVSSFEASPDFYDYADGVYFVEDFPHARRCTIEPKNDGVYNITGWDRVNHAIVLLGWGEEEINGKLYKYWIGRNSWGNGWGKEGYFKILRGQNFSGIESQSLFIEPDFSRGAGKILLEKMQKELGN
Assay: primary screen, percent inhibition; read by cleavage of a fluorogenic dipeptide substrate; higher = more effect of the substance
Parameters: species or system P. falciparum D10 trophozoite lysates; single well
Protocol: HTS was performed in black 384-well plates. The first and last two columns of each plate contained our negative (DMSO) and positive (10 μM JCP410) controls, and the 20 central columns the test compounds at 10 μM. Compounds were first diluted 50-fold into assay buffer (50 mM sodium acetate, 5 mM MgCl2, 10 mM β-mercaptoethanol, and 0.1% CHAPS, pH 5.5) from a 10 mM DMSO stock plates. One microliter of this 200 μM intermediate stock plate was dispensed into the assay plate. […] After 30 min, the reaction was quenched with 20 μL of 0.5 M acetic acid, and the fluorescent intensity measured at 523 nm (λex = 492 nm) using an Analyst HT multimode plate reader (Molecular Devices).
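Note: 30 min substrate incubation versus DMSO and 10 µM JCP410 controls.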

Structure (SMILES)	% Inhibition @ 10 uM
Cc1cc(C)c(CN2C(=O)c3ccccc3C2=O)c(C)c1	4.32%
Cc1oc(-c2cccc(Cl)c2)nc1CN1CCCC(C(=O)NCc2cccs2)C1 (stereo not shown)	-8.65%
CCOc1ccc(C2c3c(-c4ccccc4O)n[nH]c3C(=O)N2CCO)cc1 (stereo not shown)	-4.95%
C=CCNC(=O)c1ccccc1NC(=O)c1ccco1	0.512%
Cc1ccc(-c2csc(-c3cc4ccccc4oc3=O)n2)cc1	-4.21%
Nn1c(S)nnc1-c1ccccc1	1.63%
Cc1ccccc1CN1CCN(CC(=O)NCC2CCCO2)C1=O (stereo not shown)	-5.67%
O=C1c2oc3ccccc3c(=O)c2C(c2ccc(F)cc2)N1c1nccs1 (stereo not shown)	-8.95%
C1=C(c2ccc(-c3ccccc3)cc2)N2CCCCN=C2S1	-4.68%
CC(C)C[C@H](NC(=O)OCc1ccccc1)C(=O)N[C@H](/C=C/[N+](=O)[O-])CCc1ccccc1	0.744%
CN1C(=O)C2Cc3c([nH]c4ccccc34)C(c3cccc(Cl)c3Cl)N2C1=S (stereo not shown)	4.89%
Cc1ccc(S(=O)(=O)NCCc2nnc3ccc(SCC(=O)N4CCOCC4)nn23)cc1	-7.14%
Fc1ccc(N2CCN(Cc3cccc(F)c3)CC2)cc1	1.48%
NC1=NC(=O)/C(=C/c2cc(Br)ccc2OCc2ccccc2)S1	4.1%
CC1=C(C(N)=O)C(c2ccc(O)cc2)n2nc(-c3cccc(C)c3)nc2N1 (stereo not shown)	-1.47%
C=CCN(C(=O)Nc1ccc2oc(C)nc2c1)c1ccccc1	-6.41%
O=C(CC(C(=O)O)N1CCOCC1)c1ccccc1 (stereo not shown)	34.3%
CC1(C)CC2=Nc3ccccc3NC(c3cccc(O)c3O)C2=C(O)C1 (stereo not shown)	-2.78%
COCCN1C(=O)c2ccccc2C(C(=O)Nc2cccc(C)n2)C1c1ccc(F)cc1 (stereo not shown)	2.06%
N=c1nc(N)nc(Nc2ccccc2)n1-c1ccccc1	6.4%
O=c1oc2ccccc2n1Cc1ccc(F)cc1Cl	4%
CN(CCCNC(=O)Cn1ncc2c3ccccc3n(Cc3ccccc3)c2c1=O)Cc1ccccc1	-1.58%
Cc1cccc(Oc2nc3c(C)cccn3c(=O)c2/C=C(\C#N)C(=O)NC2CCS(=O)(=O)C2)c1C (stereo not shown)	0.315%
CC1=C(C(=O)OCC(C)C)C(c2ccc(F)cc2)NC(=O)N1 (stereo not shown)	-3.35%
CCCCN(C)C1CCN(Cc2ccccc2)CC1	-4.14%

Structure (SMILES)	% Inhibition @ 10 uM
COc1cccc(CN2CCC(Cc3ccccc3)CC2)c1	3.25%
Cc1ccccc1CN1CCN(c2ccc(F)cc2)CC1	-3.56%
CCCn1c2ccccc2c2cnn(CC(=O)Nc3ccc(NC(C)=O)nc3)c(=O)c21	0.721%
COc1ccc(S(=O)(=O)c2c(-c3ccccc3)cn3ccccc23)cc1	-2.96%
Cc1[nH]c2ccccc2c1C(=O)/C=C/c1ccccc1	3%
CCOC(=O)c1cn(CC)c2cc(N3CCCCC3)c(F)cc2c1=O	2.16%
Cc1cccc(-n2ncc3c(NCCCn4ccnc4)ncnc32)c1	11%
Cc1nnc(NC(=O)CSc2nnc(Cc3cccn3C)n2C)s1	-2.45%
Clc1ccccc1COc1ccccc1CNCC1CCCO1 (stereo not shown)	0.163%
COc1ccc(C2=NOC(C(=O)NCCCN3CCOCC3)C2)cc1 (stereo not shown)	-3.45%
CC(C)=CCC12CN3CCN(CC(C3)C1O)C2 (stereo not shown)	-3.64%
CCN1CCN(C(=O)Nc2cn(C)c(=O)c3ccccc23)CC1	-0.0579%
CCN(CC)c1ccc(C(=O)NC(CCC(C)C)C(=O)NCC#N)cc1 (stereo not shown)	-5.64%
CCOC(=O)c1sc(N2C(=O)C(O)=C(C(=O)c3ccco3)C2c2ccc(OC)c(OC)c2)nc1C (stereo not shown)	-1.25%
Cc1cccc(NC(=O)CN(c2ccc(Cl)cc2C)S(C)(=O)=O)c1	-5.99%
Cc1cccc(NC(=O)Cc2cccc3ccccc23)c1C	-3.03%
COCC(C)NC(=O)C1=CC(c2ccco2)=NS(=O)(=O)N1C (stereo not shown)	2.32%
Cc1cc(NS(=O)(=O)c2ccc(NC(=O)Nc3ccc(Cl)cc3)cc2)no1	2.42%
COc1ccc(Cn2c(C(=O)O)c(CNC3CCCCCC3)c3ccc(C)cc32)cc1	-0.537%
CC1CCC2(CC1)N=C(c1ccc(Cl)cc1Cl)C(=O)N2 (stereo not shown)	1.16%
CCC(C)c1ccc(NC(=O)c2cn(C)nc2C)cc1 (stereo not shown)	-2.99%
Cc1ccc(S(=O)(=O)N(CC(=O)NC(C)(C)C)c2cc(Cl)ccc2C)cc1	4.25%
O=[N+]([O-])c1ccccc1N1CCCCC1	-6.27%
COc1cc(CNc2ccc(C(=O)O)cc2)ccc1OCc1ccccc1	-0.95%
CSc1ccc(-c2cccc(C(=O)N[C@@H](CC(C)C)C(=O)NCC#N)c2)cc1	-10.7%

Structure (SMILES)	% Inhibition @ 10 uM
O=[N+]([O-])c1ccc(Cl)cc1CN1CCN(c2cccc(C(F)(F)F)c2)CC1	-0.197%
Cc1cccc(OP(=O)(Nc2cccnc2)Oc2cccc(C)c2)c1	-1.03%
CCc1c(O)n2c(nc1=O)SCCC2	3.61%
O=[N+]([O-])c1ccccc1S(=O)(=O)n1ccnc1	4.54%
COCCNC(=O)c1cnn2c(C)c(Cc3ccccc3Cl)c(C)nc12	-2.14%
CCc1nnc(C(=O)[C@H](CC)NC(=O)[C@H](C[C@H](C)c2ccccc2)NC(=O)c2ccc(-c3ccccc3Cl)nc2)o1	-1.82%
CC(C)NS(=O)(=O)c1ccc(CCC(=O)Nc2ccc3c(c2)OCCO3)cc1	-3.92%
CCOC(=O)N1CCN(c2cc(N3CCOCC3)c(F)cc2[N+](=O)[O-])CC1	-2.48%
Oc1ccc(N2CCCCC2)nn1	2.39%
N#CC1C(=O)NC(=O)C([n+]2ccccc2)C1c1ccccc1 (stereo not shown)	0.746%
CC1(C)Cc2c(c(N3CCOCC3)nc3sc4c(SCCc5ccccc5)ncnc4c23)CO1	-7.8%
CCCNC(=O)c1ccc2[nH]c(C)c(C)c2c1	-4.71%
Cc1cc(/C=C2\SC(=O)NC2=O)c(C)n1-c1ccc(C(=O)O)cc1	8.37%
C=CCOc1ccc(C2N3CC4(C)CN2CC(c2ccccc2)(C3)C4=O)cc1 (stereo not shown)	-5.15%
Nc1nnc(SCC(=O)Nc2nncs2)s1	-7.23%
COc1ccc(/N=C2/S/C(=C\c3ccc(C)s3)C(=O)N2C)cc1	5.17%
Oc1nc(S)nc(O)c1C(c1ccccc1)c1ccccc1	0.266% and -3.42%
COC1CCCCC1Nc1cccc(SC)c1 (stereo not shown)	5%
O=C1CC(c2cccc(O)c2)C2=C(CC(c3cccs3)CC2=O)N1 (stereo not shown)	-5.47%
COc1ccc(Cl)cc1-n1nnc(-c2nc(-c3ccc(C)cc3)no2)c1N	1.4%
COc1ccc(C2C3=C(O)CC(C)(C)CC3=NC(C)=C2C(=O)Nc2cccc(C)n2)cc1 (stereo not shown)	-6.35%
COc1ccc(S(=O)(=O)N2CCCC2C(=O)Nc2nccs2)cc1 (stereo not shown)	-0.318%
Cc1nn(-c2ccccc2)c2sc(C(=O)NCC(=O)c3ccccc3)cc12	1.96%
O=C(CSc1cn(CC(=O)N2CCOCC2)c2ccccc12)NCc1ccccc1Cl	-1.39%
Cc1cc(OCC(=O)Nc2sc(C)c(C)c2C(N)=O)cc(C)c1Cl	2.56%

Structure (SMILES)	% Inhibition @ 10 uM
CCOC(=O)N1CCN(C(=O)c2cnn(-c3ccc(F)cc3)c2-n2cccc2)CC1	-6.3%
CC(=O)c1ccc(N2C(=O)C3CC=CCC3C2=O)cc1 (stereo not shown)	3.05%
O=C(Cn1c(=O)c2cccn2c2cccnc21)N1CCCCCC1	0.436%
CCSc1nc(N)c(C#N)c(CC)c1C#N	23.3%
CCOc1ccccc1C(=O)Nc1cccc(CC)c1	-0.545%
Cc1oc(-c2ccc(Cl)cc2)nc1CSCC(=O)NC(C)C	-1.05%
COc1ccc(-c2cc(C(F)F)n3ncc(C(=O)Nc4cccc(NC(C)=O)c4)c3n2)cc1	-1.99%
O=[N+]([O-])c1ccc(C2Oc3ccccc3C3CC(c4ccccc4)=NN32)cc1 (stereo not shown)	1.24%
CC1(C)Cc2c(C#N)c(NC3CCCCC3)nc(-c3ccco3)c2CO1	0.415%
OC1CCN(Cc2ccccc2Cl)CC1	-3.56%
Cc1cccc(NC(=O)c2ccccc2NC(=O)CCC(=O)O)c1	1.94%
CC(=O)Nc1ccc(NS(=O)(=O)c2ccc(NC(C)=O)cc2)cc1	3.81%
Cc1cccc(CSc2nc3ccncc3n2Cc2cc(=O)n3ccccc3n2)c1	-0.637%
Cc1ccc2c(C)nc(Nc3nc(C)c(Cc4ccccc4)c(O)n3)nc2c1	2.27%
CCn1cc(NC(=O)NCc2cccs2)c(=O)c2ccc(C)nc21	0.635%
C1=C(CCNC2CCN(CCc3ccccc3)CC2)CCCC1	-7.02%
Cc1ccnc(NS(=O)(=O)c2cc(-c3onc(C)c3C)ccc2C)c1	-0.795%
COC(=O)c1c(C(F)(F)F)nc(C(F)F)c(C(=O)O)c1CC(C)C	-7.11%
O=c1[nH]c(=O)c2sc3nc(C(F)(F)F)cc(Cc4ccccc4)c3c2[nH]1	0.9%
Cc1ccccc1Cc1c(C)nc2c(C(=O)NCC3CCCO3)cnn2c1C (stereo not shown)	1.16%
Cc1c(Cc2ccccc2)sc(NC(=O)c2ccco2)c1C(N)=O	-1.02%
COc1cccc(-c2cn3c(n2)sc2cc(C(=O)NCCCN4CCCC4=O)ccc23)c1	3.54%
CN(Cc1ccccc1)S(=O)(=O)c1ccc2nc(O)ccc2c1	-4.18%
O=C1c2ccccc2C(=O)c2c1cccc2N1CCN(Cc2ccccc2)CC1	-3.27%
Cc1cc(C)nc(Sc2ncnc3sc4c(c23)CCC4)n1	-1.65%
